# Source: PubChem BioAssay AID1963576 (National Center for Advancing Translational Sciences (NCATS), 2024)
# Screen size: about 46,000 compounds; about 60 (0.1%) were called active. Roughly 3% stayed inconclusive and do not appear here. The call rests on the fitted dose curve; in most records, active means well fitted inhibition curve with a large enough effect; inconclusive means small, poorly fitted or top-dose-only effect; inactive means no such curve, though single readings can be large or run the other way. The list shows a part of the results.
# Assay: Primary qHTS assay for Inhibitors of ovarian cancer metastasis using an organotypic tumor microenvironment (TME) model. Further: nearly all actives have a fitted effect of over 65% in size.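 On activity change, negative = inhibition: plate controls were DMSO wells for no effect and tomatine positive control wells for full effect.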
# Settings: SKOV3ip1-GFP adhesion/invasion on 3D omental model, fluorescence; series mostly up to 45.8 µM; activity change, negative = inhibition: at the top concentration
# How it was run: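 Primary human omental fibroblast/mesothelial 3D culture pre-formed 48 h. SKOV3ip1-GFP cells added with compounds (0.36-46 umol/L), incubated 2 h RT/16 h 37 C, fixed; GFP cells quantified at 488/509 nm.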
Compound,outcome,"activity change, negative = inhibition"
CCOc1ccc(NC(=O)Cn2cc(C(=O)c3ccccc3)c(=O)c3cc4c(cc32)OCCO4)cc1,inactive,–
CCc1ccccc1Nc1cc(C(=O)NCCCN(C)C2CCCCC2)c2ccccc2n1,–,inactive: -12.5%
Cc1ccc(C2c3[nH]c4ccccc4c3CCN2C(=O)CCc2ccccc2)cc1 (stereo unspecified),–,inactive: -16%
Cn1c(=O)c(=O)n(C)c2cc(S(=O)(=O)Nc3ccc(Cl)c(C(F)(F)F)c3)ccc21,–,inactive: -5.01%
O=C(CC(NCc1cccnc1)C(=O)O)Nc1ccc(O)cc1 (stereo unspecified),–,inactive: -3.85%
CCOc1ccc(CCNC(=O)C2CCN(Cc3nc(-c4ccccc4C)oc3C)CC2)cc1OCC,–,inactive: 4.39%
CCN(C(=O)CSc1nc2ccccc2n1CC(=O)N1CCCC(C)C1)c1ccccc1 (stereo unspecified),–,inactive: -4.79%
Cc1cc(=O)oc2cc(OCC(=O)Nc3c(C(C)C)cccc3C(C)C)ccc12,–,inactive: -6.81%
COc1cc(OC)c(NC(=O)Cn2cnc3nc4c(cc3c2=O)CCCC4)cc1Cl,–,inactive: 1.32%
Oc1ccc(C2=Cc3ccc(O)cc3OC2)cc1,–,inactive: 4.46%
CCOc1ccc(CNC(=O)Cc2ccc(NC(=O)N3CCCCc4ccccc43)cc2)cc1OC,–,inactive: 3.13%
CC(C)(C)c1ccc(C(=O)N2CCN(Cc3cc(=O)n4nc(-c5ccccc5F)sc4n3)CC2)cc1,inactive,–
Cc1ccc(NC(=O)C2CCC(CNS(=O)(=O)c3ccc4c(c3)C(C)(C)C(=O)N4C)CC2)cc1 (stereo unspecified),–,inactive: -10.3%
CCC(=O)N1CCc2cc(Br)cc(S(=O)(=O)NCc3ccccc3)c21,inactive,–
O=C(CCCCCn1c(=O)[nH]c2ccccc2c1=O)NCc1ccc(Cl)cc1,–,inactive: 4.63%
Cc1cc(C)c(NC(=O)Nc2csc3c2CCCC3)c(C)c1,–,inactive: 1.17%
COc1cc(NC(=O)CCNC(=O)Cn2cnc3ccccc3c2=O)cc(OC)c1OC,–,inactive: 7.1%
CCCc1cc(N2CCN(c3ccc(OC)cc3)CC2)n2cnnc2n1,–,inactive: -2.38%
COc1ccc(CCn2c(=O)c3cccnc3n(CC(=O)Nc3c(C)cc(C)cc3C)c2=O)cc1OC,–,inactive: 3.82%
Fc1ccc(-n2ncc3c(N4CCN(c5ccccc5F)CC4)ncnc32)cc1,–,inactive: -1.25%
Cc1sc2ncn(CC(=O)N(C)c3cccc(C(F)(F)F)c3)c(=O)c2c1S(=O)(=O)N1CCN(c2ncccn2)CC1,–,inactive: 3.53%

Compound,outcome,"activity change, negative = inhibition"
CCN(CC)C(=O)COc1ccc(-c2nnc(Nc3ccc(OC)c(C(=O)NC)c3)c3ccccc23)cc1,–,inactive: -9.09%
O=C(O)c1cc(=O)c2c(OCC(O)COc3cccc4oc(C(=O)O)cc(=O)c34)cccc2o1,–,inactive: -19.1%
CSc1ccc(CCNC(=O)C2CCN(c3ncnc4c3nc3n4CCCCC3)CC2)cc1,–,inactive: 4.95%
COc1ccccc1-c1nc(SCC(=O)Nc2ccc(C)c(C)c2)n[nH]1,inactive,–
O=C(CCn1ccc2cc(S(=O)(=O)N3CCCC3)ccc21)NCc1ccccc1Cl,–,inactive: -16.7%
CCc1nn2c(=O)cc(COC(=O)c3ccccc3NC(=O)c3cccs3)nc2s1,inactive,–
CCn1nc(C)c2c(-c3ccccc3)cc(=O)n(C(C)C(=O)NCCc3ccccc3)c21 (stereo unspecified),–,inactive: 3.62%
Cc1cc(=O)oc2c3c(ccc12)OCN(Cc1ccc(Cl)cc1)C3,–,inactive: 9.46%
COC(=O)c1ccc(NC(=O)CC2C(=O)N(c3cccc(C)c3)C(=O)N2C2CCCC2)cc1 (stereo unspecified),inactive,–
Fc1ccccc1Nc1ncnc2c1nc1n2CCCCC1,–,inactive: -2.12%
O=C(NCCc1ccc(Cl)cc1)c1ccc2c(c1)N(Cc1cccc(Cl)c1)C(=O)c1ccccc1S2(=O)=O,–,inactive: -1.58%
COc1cccc(-c2nnc3sc(CN4CCCCC4)cn23)c1,–,inactive: -20.8%
CCC1CCCCN1C(=O)Cn1c(=O)n(CCCCCC(=O)NCc2ccccc2Cl)c(=O)c2sccc21 (stereo unspecified),–,inactive: -0.927%
CCOc1ccc(NC(=O)CS(=O)(=O)Cc2nc(-c3ccc(C)cc3)oc2C)cc1,–,inactive: -9.45%
O=C(COc1ccccc1)Nc1ccc2nc(SCC(=O)N3CCCC3)sc2c1,–,inactive: -4.04%
COc1ccc(C2CC(=O)Oc3c2c(=O)n(C)c2ccccc32)c(OC)c1OC (stereo unspecified),–,inactive: -6.37%
CCCCc1nc2cc(C=CC(=O)NO)ccc2n1CCN(CC)CC,–,inactive: -9.92%
CCCCOc1ccc(CC(=O)NO)cc1,–,inactive: -10.8%
COc1ccc(OC)c2sc(N(CCCN(C)C)C(=O)c3ccco3)nc12,–,inactive: -23.3%
COc1ccc(C2c3c(oc4ccccc4c3=O)C(=O)N2c2nc(C)c(C)s2)cc1 (stereo unspecified),–,inactive: -11%
Cc1ccccc1CNC(=O)CCSCc1cnn(-c2ccccc2)c1-n1cccc1,inactive,–

Compound,outcome,"activity change, negative = inhibition"
COc1ccc(C2c3c(-c4ccc(F)cc4)n[nH]c3C(=O)N2c2ccccc2)cc1OC (stereo unspecified),–,inactive: -2.29%
CCOc1ccc(CCNC(=O)c2cc3c(-c4ccccc4F)nn(C)c3s2)cc1OCC,–,inactive: -18.5%
CCOC(=O)c1ccc(NC(=O)c2ccc(-c3cccc(Cl)c3C)o2)cc1,inactive,–
COC(=O)c1cc(C)nc2c1c(=O)nc(SCc1c(C)cc(C)cc1C)n2C1CC1,–,inactive: -6.88%
CCc1ccc(NC(=O)CSc2nc3ccccc3c(=O)n2CCC(=O)NC2CCCCC2)cc1,–,inactive: -13.3%
CC(C)Oc1cccc(C(=O)Nc2ccc3oc(-c4ccccc4)nc3c2)c1,–,inactive: -12.6%
Cc1ccc2nc(CN3CCN(S(=O)(=O)c4ccccc4)CC3)oc2c1,–,inactive: 6.91%
O=C(Cn1cc(S(=O)(=O)Cc2ccccc2Cl)c2ccccc21)Nc1cccc(C(F)(F)F)c1,–,inactive: -1.69%
Cc1nc2nc(C)c(CCC(=O)NCCc3ccccc3)c(C)n2n1,inactive,–
Cc1ccc(S(=O)(=O)N(CC(=O)Nc2c(C)cccc2C)c2cccc(Cl)c2)cc1,–,inactive: -2.69%
COC(=O)c1cc2oc3ccccc3c2n1CC(=O)Nc1ccc(N(C)C)cc1,–,inactive: -15.1%
Nc1c(-c2nc(-c3ccccc3Cl)no2)nnn1-c1ccccc1F,–,inactive: 0.467%
Cc1ccc(NC(=O)COc2ccc(-c3nn(C)c(=O)c4ccccc34)cc2)c(C)c1,–,inactive: -28.4%
CCC(Sc1nc2cc3c(cc2c(=O)n1CCCC(=O)NCc1ccc2c(c1)OCO2)OCO3)C(=O)NCCCOC (stereo unspecified),inactive,–
CCC(=O)N1c2ccc(S(=O)(=O)N3CCCCCC3)cc2CC1C (stereo unspecified),inactive,–
Cc1ccc(N2CCN(S(=O)(=O)c3cc(Br)cc4c3N(C(=O)C3CC3)CC4)CC2C)cc1 (stereo unspecified),–,inactive: 19.4%
CCC(CC)c1nn2cc(-c3ccccc3)nc2s1,inactive,–
CCOc1cc(-c2nnc(SCC(=O)NCCCOC)nc2-c2ccc(OC)c(OCC)c2)ccc1OC,–,inactive: 1.41%
COc1ccc(NC(=O)C(NS(=O)(=O)c2cccc3nsnc23)c2ccccc2)cc1 (stereo unspecified),–,inactive: 7.39%
